Laboratory results as given in PubChem BioAssay AID686970 (National Center for Advancing Translational Sciences (NCATS), 2013).
Out of some 360,000 compounds screened, about 6,000 (1.7%) were called active. Inconclusive means that the source gave no clear call. Such entries were picked first, then a sample of the others. Calls come from the whole dose curve; as a rule, active = well fitted cell-killing curve with a large enough effect; inconclusive = small, poorly fitted or top-dose-only effect, or effect the other way; inactive = flat fitted curve, though single readings scatter. Potencies of inconclusive entries are left out as doubtful fits.

Assay: qHTS for induction of synthetic lethality in tumor cells producing 2HG: qHTS for the HT-1080-NT fibrosarcoma cell line;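 note: NT is the 2HG producing partner of a matched IDH1 knockdown line; nearly all actives have a fitted effect of over 55% in size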;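 for activity, negative = less viability: 0% = DMSO-treated cells and -100% = media-only wells without cells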
Settings: HT-1080-NT fibrosarcoma viability, CellTiter-Glo ATP luminescence, 48 h; activity, negative = less viability: at 46.1 µM (top of the series) unless noted
In short: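 Viability by CellTiter-Glo luminescence after 48 h compound exposure at 37C of HT-1080-NT cells (750/well, RPMI, 5% FBS). % activity scaled between DMSO wells and medium-only wells, then curve-fitted and categorized by curve class.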
Potency is the fitted concentration of half-maximal effect; tags give direction and shape of the fitted curve.

Structure (SMILES) | Potency | activity, negative = less viability
S=C(Nc1ccc(Cl)c(Cl)c1)NC1CCCCC1 | active: 10 µM | –
COc1ccc(CN(C)C[C@@H]2OCc3cnnn3CCCC(=O)N([C@@H](C)CO)C[C@H]2C)cc1 | – | inactive: 1.89%
CC[C@@]12C(=O)N(c3ccc(C)cc3)C(=O)N1[C@H](c1cccc(C)c1)[C@@H]1C(=O)N(Cc3ccccc3)C(=O)[C@@H]12 | inconclusive [rising, single point] | –
CCCOc1ccc(N2C(=O)CC(N(Cc3ccco3)C(=O)CC)C2=O)cc1 (stereo unspecified) | inconclusive [rising, single point] | –
O=[N+]([O-])/C(=C\Nc1ccc(F)cc1F)S(=O)(=O)c1ccccc1 | – | inactive: 9.1%
C#CCOCCOCCOCCNc1nc(N2CCN(C(=O)CCCCCCCCCCNC(=O)[C@H]([C@@H](C)CC)n3cc(CCCCN=C(N)N)nn3)CC2)nc(N2CCN(C(=O)CCCCCCCCCCNC(=O)[C@H](CCCCN)n3cc(C)nn3)CC2)n1 | inconclusive [cytotoxic, single point] | –
CC(C)N(Cc1nc(-c2ccc(Cl)cc2)no1)C(=O)C(c1ccccc1)c1ccccc1 | – | inactive: -18%
CCOC(=O)/C(C#N)=N/Nc1ccc(S(=O)(=O)N2CCc3ccccc32)cc1 | inconclusive [cytotoxic, partial curve] | –
CC(NCC(=O)Nc1cc(S(=O)(=O)N2CCCCCC2)ccc1Cl)c1ccccc1 (stereo unspecified) | inconclusive [cytotoxic, single point] | –
CC(C)Oc1ccc(CN2CCC2(C)C(=O)Nc2cccc3cccnc23)cc1 (stereo unspecified) | inconclusive [cytotoxic, single point] | –
C=CCOc1ccc(CN(C)CC(O)COc2cccc3ccccc23)cc1 (stereo unspecified) | inconclusive [cytotoxic, single point] | –
COc1ccc(OC)c(CN2C(=O)CSCC2(C)C(=O)NCc2ccccc2)c1 (stereo unspecified) | – | inactive: 6.45%
O=c1[nH]c2ccccc2c(O)c1O | active: 18.4 µM | –
O=C(/C=C/[C@H]1O[C@@H](n2ccc(=O)[nH]c2=O)[C@H](O)[C@@H]1O)NCc1ccccc1 | – | inactive: 16.2%
CCOC(=O)C1CCCCN1Cc1cccc(Oc2ccccc2)c1 (stereo unspecified) | – | inactive: 14.2%
CCCc1c(-c2cccc(F)c2)ncn1CCc1ccccc1OC | inconclusive [cytotoxic, single point] | –
Nc1c(C(=O)Nc2ccc3c(c2)OCCO3)nnn1Cc1cccc(Cl)c1 | inconclusive [cytotoxic, full curve, poor fit] | –
C[C@H](CO)N1C[C@H](C)[C@@H](CN(C)Cc2ccccc2)OCc2cnnn2CCCC1=O | – | inactive: 1.45%
Cc1cc(C)c(C)c(S(=O)(=O)N2CCN(c3ncnc4ccccc34)CC2)c1C | inconclusive [cytotoxic, single point] | –
Clc1ccc2nnnc(-c3ccccc3)c2c1 | inconclusive [cytotoxic, full curve] | –
CCOC(=O)[C@]12CCCC=C1N(Cc1ccc(Cl)cc1Cl)C(=O)[C@H](CC(=O)NCc1cccc(C(F)(F)F)c1)C2 | active: 32.6 µM | –
CCn1c2ccccc2c2cc(NC(=O)c3ccco3)ccc21 | inconclusive [cytotoxic, single point] | –

Structure (SMILES) | Potency | activity, negative = less viability
COc1ccccc1C(=O)NC(=S)NNC(=O)c1sc2ccccc2c1Cl | inconclusive [cytotoxic, partial curve] | –
Cc1ccc(P(=O)(c2ccc(C)cc2)[C@@H](NC(c2ccccc2)c2ccccc2)c2ccccc2)cc1 | active: 14.6 µM | –
CC(C)C[C@H]1CNC(=S)N1C[C@H]1CCCN1C[C@H](Cc1ccccc1)N1C[C@H](Cc2ccc(O)cc2)N(CC2CCCCCC2)C1=S | active: 20.6 µM | –
Cc1cccc(C(=O)N2[C@@H](C(C)C)COc3cc(Br)ccc3S2(=O)=O)c1 | inconclusive [cytotoxic, single point] | –
O=C(N/N=C\CCc1ccccc1)c1ccco1 | – | inactive: 16.8%
N#C/C(=C\c1cccs1)c1nc2ccccc2[nH]1 | inconclusive [cytotoxic, single point] | –
N#C/C(=C\c1cccc2ccccc12)c1nn(-c2ccccc2)c(N)c1C#N | inconclusive [cytotoxic, single point] | –
Cc1[nH]c2ccccc2c1/C=N/Nc1nc(Nc2ccccc2)nc(N2CCOCC2)n1 | inconclusive [cytotoxic, single point] | –
Nc1nc(Nc2ccccc2F)nc(NC2CCCCC2)c1[N+](=O)[O-] | active: 16.4 µM | –
COc1ccc(-c2nc3cnccn3c2NC(C)(C)CC(C)(C)C)cc1O | inconclusive [cytotoxic, single point] | –
Cc1cc(C)nc(SCC(=O)NC2=NN=C(c3ccc(Br)cc3)CS2)n1 | active: 22.4 µM | –
Clc1ccc(/C=N/Nc2nnc(-c3ncc[nH]3)c3ccccc23)cc1 | inconclusive [cytotoxic, single point] | –
Cc1nn2c(-n3ccnc3)c3c(nc2c1-c1ccccc1)CCC3 | – | inactive: -0.972%
Cc1ccc(C(=O)N2CCN(c3ccc(C(F)(F)F)cn3)CC2)cc1 | – | inactive: 1.3%
COc1ccccc1C1CCN(Cc2cccc3ccccc23)CC1 | inconclusive [cytotoxic, single point] | –
CC(=O)NC(CC(=O)O)C(=O)O (stereo unspecified) | – | inconclusive: 32.6%
COc1ccc(NC(=O)C2(C)Cc3c(-c4ccc(N(C)C)cc4)ccnc3O2)cc1 (stereo unspecified) | inconclusive [cytotoxic, single point] | –
COc1ccccc1/C=C/C(=O)/C=C/c1ccccc1O | active: 6.51 µM | –
Cc1cccc(C)c1NC(=O)C(Cl)=C(Cl)Cl | inconclusive [cytotoxic, partial curve, poor fit] | –
O=c1[nH]c(C2CCCN(S(=O)(=O)c3ccccc3F)C2)nc2c1nnn2Cc1ccccc1Cl (stereo unspecified) | inconclusive [cytotoxic, single point] | –
CCn1c2ccccc2c2cc(/C=N/NC(=O)c3ccccc3)ccc21 | inconclusive [cytotoxic, partial curve] | –
CC1(C)COC(/C=C/c2cccc([N+](=O)[O-])c2)=N1 | inconclusive [cytotoxic, single point] | –

Structure (SMILES) | Potency | activity, negative = less viability
Cc1nn(Cc2c(F)c(F)c(F)c(F)c2F)c(C)c1NC(=O)c1ccnn1C | – | inactive: 12.9%
COC(=O)[C@]12CCCCC=C1N(Cc1cccc3ccccc13)C(=O)[C@H](CC(=O)N1CCSCC1)C2 | inconclusive [cytotoxic, single point] | –
COc1ccc(C2CC(c3c(-c4ccccc4)c4cc(Cl)ccc4[nH]c3=O)=NN2C(=O)CCC(=O)O)cc1 (stereo unspecified) | – | inactive: -26.9%
Cn1c(=O)[nH]c(=O)c2c1nc(Br)n2CCCSc1nc2ccccc2o1 | inconclusive [cytotoxic, single point] | –
CSc1cccc(NC(=S)N(CCN(C)C)C(C)c2ccccn2)c1 (stereo unspecified) | inconclusive [cytotoxic, single point] | –
NC(c1csc(NC(=O)Nc2ccccc2Oc2ccccc2)n1)c1ccccc1Cl (stereo unspecified) | inconclusive [cytotoxic, single point] | –
C#CCOCCOCCOCCNc1nc(N2CCN(C(=O)CCCCCCCCCCNC(=O)[C@H](CCCCN)n3cc(C)nn3)CC2)nc(N2CCN(C(=O)CCCCCCCCCCNC(=O)[C@H](CCCN=C(N)N)n3cc(C[C@@H](C)CC)nn3)CC2)n1 | inconclusive [cytotoxic, single point] | –
COC(=O)[C@]12CCCCC=C1N(Cc1cccc3ccccc13)C(=O)[C@H](CC(=O)NCCC(C)C)C2 | inconclusive [cytotoxic, single point] | –
COc1ccc(CN2CCC(Cc3ccccc3)CC2)c(C)c1C | inconclusive [cytotoxic, single point] | –
COc1ccc(-c2nc3c(Cl)cc(C(F)(F)F)cn3c2Cc2cccc(F)c2)cc1OC | – | inactive: 0.242%
Cc1cc(C(=O)CCl)c(C)n1CCc1ccc(F)cc1 | active: 5.8 µM | –
CS(=O)(=O)N(CC(=O)N1CCN(c2ccc(F)cc2)CC1)C1CCCCC1 | inconclusive [cytotoxic, partial curve, poor fit] | –
COc1ccc(-c2nnn(CC(=O)NC3CCCc4ccccc43)n2)cc1OC (stereo unspecified) | inconclusive [cytotoxic, single point] | –
CCOc1cccc(-c2nnc3sc(COc4ccccc4)nn23)c1 | – | inactive: 5.5%
NC1=NC(c2ccc(Br)cc2)n2c(nc3ccccc32)N1 (stereo unspecified) | inconclusive [cytotoxic, single point] | –
CCCCc1ccc(NC(=O)CSc2nc(=O)n(CCCN3CCOCC3)c3c2CCC3)cc1 | inconclusive [cytotoxic, partial curve] | –
OCCOC1CCCc2oc(-c3ccccc3)c(C#CC3(O)CCCCC3)c21 (stereo unspecified) | inconclusive [cytotoxic, single point] | –
COc1ccccc1NC(=O)Cn1nnc(C(=O)NCc2cccs2)c1N | active: 2.31 µM | –
Cn1nc(CSc2ccccc2)c(C=O)c1Cl | – | inactive: 3.54%
COc1cccc(C(=O)Nc2ccc(C3CC3(Cl)Cl)cc2)c1 (stereo unspecified) | inconclusive [cytotoxic, single point] | –
O=C(Cn1cnc2cc([N+](=O)[O-])ccc2c1=O)Nc1cccc(S(=O)(=O)N2CCCCC2)c1 | inconclusive [cytotoxic, single point] | –
COc1ccc(-c2oc3ccccc3c2C#Cc2cncn2C)cc1 | inconclusive [cytotoxic, single point] | –
